# In the RNAGym collection of RNA variant scans (doi:10.7554/elife.90254):
# Read counts are not given, so values of variants with three or more changes are uncertain.
# B1: OR4K15 (parent)
# chain: GUUAACGGUCAUAGGCCAUGGAAACUAGGAGCACCAUUUCGCUGCCAGUGAAGAAAUGAACAAAGAAAAUCUGGGCCAGGCAGGCAUCAAAAGAAAUAGUCUUGCGCUCAACCAGAAAGUCUGUAAUCAUUUUAAGGGUA
# Variants of: B1
# Experiment: self-cleavage, relative activity (ratio to wild type); higher = more cleavage; in vitro, sequencing; the parent is a self-cleaving ribozyme
row,Variant,self-cleavage
1,GAUAACGGUCAUAGGCCAUGGAAACUAGGAGCACCAUUUCGCUGCCGGUGAAGAAAUGAACAAAGAGAAUCUGGGCCAGGCAGGCAUCAAAAGAUAUAGUCUUGCGCUCAACCAGAAAGUCUAUAAUCAUUUUAAGGGUA [U2A A47G A67G A95U G123A],1.2
2,GAUAACGGUCAUAGGCCAUGGAAACUGGGAGCACCAUCUCCCUGCCAGUGCAGAAAUGAACAAAGAAAAUCUGGGCCAGGCAGGCAUCAAAAGAAAUAGUCUUGCGCUCAACCAGAAAGUCUGUAAUCAUCUUAAGGGUA [U2A A27G U38C G41C A51C U131C],0.93
3,GAUAACGGUCAUAGGCCAUGGAAACUAGGAGCACCAUUUCGCUGCCAGUGGAGAAAUGAAUAAAGAAAAUCUGGGCCGGGCAGGCAUCAAAAGAAAUAGUCUUGCGCUCAACCAGAAAGUCUGUAAUCAUUUUAAGGGUA [U2A A51G C61U A78G],0.35
4,GAUAACGGUCAUAGGCCAUGGAAACUAGGAGCACCAUUUCGCUGCCAGUGAAGAAAUGAACGAAGAAAAUCUGGGCCAGGCAGGCAUCAAAAGAAAUAGUCUUGCGCUCAACCGGAAAGUCUGUAAUCAUUUUAAGGGUA [U2A A62G A114G],0.39
5,GAUAACGGUCAUAGGCCAUGGAAACUAGGAGCACCAUUUCGCUGCCAGUGACGAAAUGAACAAAGAAAAUCGGGGCCAGGUAGGCAUCAAAAGAAAUAGUCUUGCGCUCAACCAGAAAGUCUGUAAUCAUUUUAAGGGUA [U2A A52C U72G C81U],0.34
6,GAUAACGGUCAUAGGCCAUGGAAGCUAGGAGCACCAUUUCGCUGCCAGUGAAGAAAUGAACAAAGAAAAUCUGGGCCAGGCAGGCAUCAAAAGAGAUAGUCUUGCGCUCAACCAGAAAGUCUGUAAUCAUUUUAAGGGUA [U2A A24G A95G],1.23
7,GAUAACGGUCAUAGGCCAUGGAAACUAGGGGCACCAUUUCGCAGCCAGUGAAGAAAUGAACAAAGAAAAUCUGGGCCAGGCAGGCAUCAAAAGAAAUAGUCUUGCGCUCAACCAGAAAGUCUGUAAACGUUUUAAGGGUA [U2A A30G U43A U127A A129G],2.15
8,GAUAACGGUCAUAGGCCAUGGAAACUAGGAGCACCAUUUCGCUGCCAGUGAAGAAAUGAACAAAGAAAAUCUGGGCCAGGCAGGCGUCAAAAGAAAUAGUCUUGCGCUCAACCAGAAAGUCUGUAAUCAUCUUAAGGGUA [U2A A86G U131C],1.06
9,GAUAACGGUCAUAGGCCAUGGAAACUAGGAGCACCGUUUCGCUGCCAGUGAAGAAAUGAACAAAGAAAAUCUGGGCCAGGCAGGCAUCAAAAGAAAUAGUCUUGCGCUCAGCCAGAAAGUCUGUAAUCAUUGUAAGGGUA [U2A A36G A111G U132G],0.08
10,GAUAACGGUCAUAGGCCAUGGAAACUAGGAGCGCCAUUUCGCUGCCAGUGAAGAGAUGAACAAAGAAAGUCUGGGCUAGGCAGGCUUCAAAGGUAAUAGUCUUGCGCUCAACCAGAAAGUCUGUAAUCAUUUUAAGGGUA [U2A A33G A55G A69G C77U A86U A92G A94U],1.6
11,GAUAACGGUCAUAGGCCAUGGAAACUAGGAGCACCAUUUCGCUGCCAGUGAAGAAAUGAACAAAGGAAAUCUGGGCCAGGCAGGCAUCAAAAGAAGUAGUCUUGCGCUCAACCAGAAAGUCUGUAAUCAUUUUAAGGGUA [U2A A66G A96G],0.88
12,GAUAACGGUCAUAGGCCAUGGAAACUAGGAGCACCAUUUCGCUGCCAGUGAAGAAAUGAACAAAGAAAAUCUGGGCCAGGCAGGCAUCAAGAGAAAUAGUCUCGCGCUCAACCAGAAAGUCUGUAAUCAUUUUAAGGGUA [U2A A91G U103C],0.73
13,GAUAACGGUCAUAGGCCAUGGAAACUAGGAGCACCAUUUCGCUGCCAGUGAGGAAAAGAACAAAGAAAGUCUGGGCCAGGCAGGCAUCAAAAGAAAUAGUCUUGCGCUCAACCAGAAAGUCAGUAAUCAUUUUAAGGGUA [U2A A52G U57A A69G U122A],0.79
14,GAUAACGGUCAUAGGCCAUGGAAACUAGGAGCACCAUUUCGCUGCCAGUGAGGAAAUGAACAAAGAAAACCUGGGCCAGGCAGGCAUCAAAAGAAAUAGUCUUGCGCUCAACCAGAAAGUCUGUAAUCAUUUUAAGGGUA [U2A A52G U70C],1.3
15,GAUAACGGUCAUAGGCCAUGGAAACUAGGAGCACCAUUUCGCUGCCAGUGAUGAAAUGAACAAAGAAAAUCUGGGCCAGGCGGGCAUCAAAAGAGAUAGUCUUGCGCUCAACCAGAAAGUCUGUAAUCAUUCUAAGGGGA [U2A A52U A82G A95G U132C U139G],1.37
16,GAUAACGGUCAUAGGCCAUGGAAACUAGGAGCGCCAUUUCGCUGCCAGUGAAGAAAUGAACAAAGAAAAUCUGGGCCAGGCAGGCAUCAAAAGAAAUAGUCUUGCGCUCAACCAGAAAGUCUGUAAUCAUUUUAGGGGUA [U2A A33G A135G],1.37
17,GAUAACGGUCAUAGGCCAUGGAAACUAGGAGCACCAUUUCGCUGCCAGUGAUGAAAUGAACAAAGAAAAUCUGGGCCAGGCAGGCAUCGAAAGAAAUAGUCUUGCGCUCAACCAGAAAGUCAGUAAUCAUUUUAAGGGUA [U2A A52U A89G U122A],1.29
18,GAUAACGGUCAUAGGCCAUGGAAACUAGGAGCGCCAUUUCGCUGCCAGUGAAGGAAUGAACAAAGAAAAUCUGGGCCAGGCAGGCAUCAAAAGAAAUAGUCUUGCGCUCAACCAGAAAGUCUGUAAUCAUUUUAAGGGUA [U2A A33G A54G],1.2
19,GAUAACGGUCAUAGGCCAUGGAAACUAGGAGCACCAUUUCGCUGCCAGUGAAGAAAUGAACGAAGAAAAUCUGGGCCAGGCGGGCAUCAAAAGAAAUAGUCUUGCGCUCAACCAGAAAGUCUGUAAUCAUUUUAAGGGUA [U2A A62G A82G],0.7
20,GAUAACGGUCAUAGGCCAUGGAAACUAGGAGCACCAUUUCGCUGCCAGUGAAGAAAUGAACAAAGAAAAUCUGGGCCAGGCAGGCAUCGAAAGAAAUAGUCUUGCGCUCAACCAGAAAGUCUGUAAUCACUUUAAGGGUA [U2A A89G U130C],1.21
21,GAUAACGGUCAUAGGCCAUGGAAACUAGGAGCACCAUUUCGCUGCCAGUGAUGAAAUGAACAAAGAAAAUCUGGGCCAGGCAGGCAUCAAAAGAAAUAGUCUUGCGCUCAACCAGAAAGUCUGUAAUCGUUUUAAGGGUA [U2A A52U A129G],0.88
